Data published in PubChem BioAssay AID1963576 (National Center for Advancing Translational Sciences (NCATS), 2024).
Among all 46,000 compounds or so, about 60 (0.1%) were called active. Inconclusive results (about 3%) are left out. The call rests on the fitted dose curve; in most records, active means well fitted inhibition curve with a large enough effect; inconclusive means small, poorly fitted or top-dose-only effect; inactive means no such curve, though single readings can be large or run the other way. The list shows a part of the results.

test: Primary qHTS assay for Inhibitors of ovarian cancer metastasis using an organotypic tumor microenvironment (TME) model.; further: nearly all actives have a fitted effect of over 65% in size;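 on activity change, negative = inhibition: plate controls were DMSO wells for no effect and tomatine positive control wells for full effect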; conditions: SKOV3ip1-GFP adhesion/invasion on 3D omental model, fluorescence; series mostly up to 45.8 µM; activity change, negative = inhibition: at the top concentration
How it was run: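 A 3D layer of primary human omental fibroblasts, mesothelial cells, fibronectin and collagen I, grown 48 hr, received SKOV3ip1-GFP cells in serum-free medium plus compounds at 0.36-46 umol/L. After 2 hr RT and 16 hr 37 C, fixed adherent GFP cells were counted; normalized to DMSO and tomatine.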

Activity change, negative = inhibition, inactive:
COc1ccc(Cn2ccn(CC(=O)Nc3cc(C)ccc3C)c(=O)c2=O)cc1 -4.15%
Cn1c(CNC(=O)CSc2nc(-c3ccccc3F)nc3cc(=O)[nH]n23)nc2ccccc21 -4.45%
CC(C)c1ccc(-c2noc(SCC(=O)N3CCN(c4ccccc4F)CC3)n2)cc1 2.71%
O=C(NCc1cccs1)c1ccc2c(c1)sc1nc(-c3ccccc3)cn12 -20.1%
COc1ccc2c(c1)c(=O)c(C(=O)c1ccc(F)cc1)cn2CC(=O)Nc1ccc2c(c1)OCCO2 40%
COc1ccc(-c2cn3cccnc3n2)cc1NC(=O)c1ccccc1C(F)(F)F -0.566%
COc1cc(CN(C(=O)c2ccccc2)c2ccccn2)cc(OC)c1OC 3.24%
Cc1cc2nn(-c3ccc(F)cc3)nc2cc1NC(=O)c1ccc(C(C)(C)C)cc1 -5.97%
CCCOc1ccc(C2C(=O)N(C3CCCCCC3)CC(=O)N2C(C)C)cc1OC (centres undefined) 18.7%
COc1ccc(-c2oc3ncn4nc(-c5ccccc5OC)nc4c3c2-c2ccc(OC)cc2)cc1 -8.97%
OCCN1CCN(c2ncnc3c2cnn3-c2cccc(Cl)c2)CC1 -4.63%
COc1cc(OC)cc(-n2c(=O)c3sccc3n(Cc3cc(=O)n4c(C)cccc4n3)c2=O)c1 4.14%
Cc1ccc2c(CC(=O)Nc3nnc(C(C)C)s3)coc2c1C -6.1%
Cc1nc(N2CCCC2)ncc1C(=O)Nc1ccc(OC(F)(F)F)cc1 -15.9%
COc1ccc(OCc2ccc(-c3nc(C#N)c(NCc4ccc(F)cc4)o3)o2)cc1 -7.35%
CCOC(=O)c1cc(-c2ccc(F)cc2)n(CCC(=O)Nc2nc3cc(C)c(C)cc3s2)c1C -1.34%
CCOc1ccc(-n2c(-c3ccc(Br)cc3)cc3c2CC(C)(C)CC3=O)cc1 -5.16%
Cc1nnc2c3ccccc3nc(Nc3ccc(F)cc3Cl)n12 7.61%
Cc1cccc(N(C)S(=O)(=O)c2nnc(NC(=O)C(C)(C)C)s2)c1 -1.73%
Cc1ccc(Cl)cc1NC(=O)Cn1nnc2sc3c(c2c1=O)CCC(C(C)(C)C)C3 (centres undefined) -1.78%
COc1ccc(N(Cc2cc3cc(OC)ccc3[nH]c2=O)C(=O)c2cccc(Cl)c2)cc1 5.23%
Brc1ccc(CN2CCc3nc(Nc4ccccc4)ncc3C2)s1 -10.1%
Cc1ccc(-n2c(=O)c3ccc(C(=O)NCc4ccccc4Cl)cc3n(CC(=O)Nc3cccc(Cl)c3)c2=O)cc1 -6.93%
Cc1nc2cc(C(=O)NCCC3=CCCCC3)ccc2n1-c1ccc(Br)cc1 1.62%
Cc1cc(C)c(NC(=O)CCN2C(=O)c3ccccc3Sc3ncccc32)c(C)c1 -21.1%
CCOc1ccc(C(=O)NCc2nnnn2-c2ccc(C)c(C)c2)cc1OCC 6.74%
CCCCCNC(=O)c1ccc2c(c1)ncn2-c1cccc(C)c1 -21.2%
Cc1cccc(C(=O)Nc2nnc(S(=O)(=O)N(C)Cc3ccc(Cl)cc3)s2)c1 7.18%
CCOC(=O)CNC(=O)CSc1cn(CC(=O)N2CCCCCC2)c2ccccc12 -3.52%
CSc1nc(Nc2ccc(C)cc2C)cc(-c2ccccc2)n1 5.35%
N#Cc1nc(-c2ccc(COc3ccccc3)o2)oc1NCc1cccnc1 1.75%
COc1cc(CNC(=O)c2sc3ncccc3c2-n2cccc2)cc(OC)c1OC -0.634%
Cc1cccc(Cn2c(=O)n(CC3CCC(C(=O)NC(C)C)CC3)c(=O)c3sccc32)c1 (centres undefined) -9.99%
CCc1cccc(CC)c1NC(=O)c1c(C)oc2ccc(O)c(CN3CCN(C)CC3)c12 2.82%
Cc1nc(N2CCCC2)c2c(C(=O)N3CCN(c4ccc(F)cc4)CC3)c(C)oc2n1 4.29%
Cc1ccc(-c2nnc(Nc3ccc(Br)cc3)c3ccccc23)cc1S(=O)(=O)NCC1CCCO1 (centres undefined) 0.867%
Cc1ccc(OCC(=O)N(Cc2ccc(Cl)cc2)Cc2ccco2)cc1C -5.5%
CCOc1ccc(NC(=O)c2cc3c(C)nn(-c4ccccc4)c3s2)cc1 -22.5%
CCOc1ccc(C2CC(=O)NC(NC(=O)c3ccc(C)cc3)=N2)cc1 (centres undefined) -6.13%
COc1cccc(-c2nc(SCC(=O)NCC3CCCO3)c(-c3ccc(C)cc3)[nH]2)c1 (centres undefined) 1.11%
COc1ccc(NC(=O)Cn2c(=O)n(CCC(C)C)c(=O)c3cccnc32)cc1Cl 0.523%
Cc1cc(C)cc(NC(=O)c2cc(C)nc3c2c(C)nn3-c2ccccc2)c1 3.64%
Cc1cccc(Cn2cc(/C=C(/C#N)C(=O)Nc3cccc(Cl)c3)c3ccccc32)c1 -3.11%
CCCOc1ccc(NC(=O)CC2C(=O)N(c3ccccc3)C(=O)N2Cc2ccc(F)cc2)cc1 (centres undefined) -17.9%
Cc1ccccc1Nc1cc(C(=O)NC2CCCC2)c2ccccc2n1 -4.35%
COc1ccc(NC(=O)c2ccc3c(=O)n4nc(Nc5ccccc5C)sc4nc3c2)cc1Cl -7.29%
C[C@]1(CO)CN(c2cc(C(=O)Nc3ccc4c(c3)-c3c(c(C(N)=O)nn3-c3ccc(F)cc3)CC4)c(Cl)cn2)C[C@@]1(C)CO -0.418%
CC(C)NC(=O)C1CCC(Cn2c(=O)c3sccc3n(CC(=O)N3CCCC3)c2=O)CC1 (centres undefined) 16.6%
Cc1ccccc1C(=O)Nc1ccccc1OCc1cc(=O)n2ccccc2n1 3.62%
CCOc1ccccc1NC(=O)Cn1c(=O)n(Cc2nc(C)no2)c(=O)c2ccccc21 -21.3%
Cc1ccc(C(=O)NCC(c2ccc3c(c2)OCO3)N2CCN(c3ccc(F)cc3)CC2)cc1 (centres undefined) 5.51%
Clc1ccccc1CNc1ncnc2c1nc1n2CCCC1 -0.613%
Cc1cccc(-c2nc(S(=O)(=O)c3ccc(Cl)cc3)c(N3CCCCCC3)o2)c1 2.69%
Cc1n[nH]c(C)c1Cc1sc2c(c1C(=O)N1C[C@H](O)CO1)c(=O)n(C)c(=O)n2CC(C)C -0.101%
CCOc1ccc(CCNC(=O)c2c(C)oc3ncn(CC(C)C)c(=O)c23)cc1 10.6%
Cc1cccc(CS(=O)(=O)Cc2ccc(C(=O)NCc3ccccc3)o2)c1 -10.3%
CCOc1ccccc1CNC(=O)c1nc(-c2ccc(Cl)cc2)n2c1CCCCC2 -11.6%
CCN(CC)c1nc2c(S(=O)(=O)c3ccccc3)nnn2c2ccc(Cl)cc12 -5.55%
Cc1cccc(NC(=O)C2CCCN(S(=O)(=O)c3ccc4c(c3)oc(=O)n4C)C2)c1C (centres undefined) 53.8%
COC(=O)c1c(NC(=O)COc2ccc(C)cc2Br)sc2c1CCCC2 9.53%
CCc1ccccc1NC(=O)CN1C(=O)C2CCCN2c2ccc(S(=O)(=O)N(CC)CC)cc21 (centres undefined) 4.4%
COc1cccc(N2C(=O)C(CC(=O)Nc3ccccc3)N(CCc3sccc3C)C2=O)c1 (centres undefined) -4.91%
CCOC(=O)C(CC)Sc1ncnc2c1c(-c1ccccc1)cn2-c1ccc(OC)cc1 (centres undefined) -6.54%
Cc1c(CNC2CCC(C)CC2)c(C(=O)O)c(C)n1Cc1ccc(Cl)cc1 (centres undefined) -1.51%
Cc1cc(C)c(OCC(=O)N(Cc2ccc(N(C)C)cc2)CC2CCCO2)c(C)c1 (centres undefined) 11.2%
Cc1cc(=O)n(CC(=O)N2CCCc3ccccc32)c2c1c(C)nn2-c1cccc(F)c1 2.35%
CCn1c(=O)c2cc(C(=O)NCc3ccc(F)cc3Cl)sc2c2ccccc21 1.05%
O=C(CSc1nnc(-c2ccccc2)c(-c2ccccc2)n1)NCCc1ccccc1 -2.8%
O=C(NCCc1ccc(F)cc1)C(=O)NCC(c1cccs1)S(=O)(=O)c1ccc(Cl)cc1 (centres undefined) 1.88%
CCS(=O)(=O)N1CC(=O)N(c2ccc(Cl)cc2C)C(C)(C(=O)NC2CCCCC2)C1 (centres undefined) -4.61%
COc1ccc2c(C)c(CCC(=O)NCCc3ccc(OC)c(OC)c3)c(=O)oc2c1 -9.67%
COc1ccc(C(=O)Nc2nnc(SCc3cc(=O)c4cccc(F)c4[nH]3)s2)cc1 0.919%
Cn1c(=O)c2c(nc(NCCCCO)n2Cc2ccccc2Cl)n(C)c1=O -2.37%
CCCCOC(=O)c1ccc(OC(=O)c2sc3ncn(Cc4cccc(F)c4)c(=O)c3c2C)cc1 4.63%
CCC(C)NC(=O)Cn1c(=O)n(CCCCCC(=O)Nc2ccccc2)c(=O)c2sccc21 (centres undefined) -6.47%
CCCN(C(=O)Cc1nc(-c2ccc(OC)cc2)no1)c1ccccc1C -19.4%

outcome, inactive:
COc1cccc(CNC(=O)Nc2cn(CC(C)C)c(=O)c3ccccc23)c1
COc1ccc(OC)c(CNC(=O)c2cc3c(=O)oc4ccc(C)cc4c3s2)c1
O=C(c1ccc2c(c1)N(Cc1ccccc1F)C(=O)c1ccccc1S2=O)N1CCC(Cc2ccccc2)CC1 (centres undefined)
CCc1nn(CC(=O)NCC(C)c2ccccc2)c(=O)c2cc3occc3n12 (centres undefined)
O=C1COc2ccc(-c3cc(-c4ccc(Cl)cc4)c4c(n3)-c3ccccc3OC4)cc2N1
CN(Cc1ccccc1)C(=O)C1CCN(S(=O)(=O)c2ccc3c(c2)oc(=O)n3C)CC1
COC(=O)c1cc2c(cc1NC(=O)c1cnn(-c3ccccc3)c1-n1cccc1)OCO2
COc1cccc(C2CC(=O)Nc3cc(OC)c(OC)c(OC)c32)c1OC(C)C (centres undefined)
COc1ccc(NC(=O)CN2C(=O)C(C)(C)c3ccccc32)cc1Cl
CSc1ccc(CCNC(=O)C2=C(C)C(=O)OC23CCCCC3)cc1
Cc1cccc(N2CCN(C(=O)Cn3ncc4c3-c3cc(C)ccc3OC4)CC2C)c1 (centres undefined)
COC(=O)c1ccc(OCC2c3cc(OC)c(OC)cc3CCN2C(=O)c2ccccc2C)cc1 (centres undefined)
Cc1ccc(Cn2c(C(=O)O)c(CNC3CCCCC3)c3ccc(C)cc32)cc1
CCN(C(=O)c1cc2c(=O)oc3ccccc3c2s1)c1ccc(C)c(C)c1
CCOc1ccc(N(C)S(=O)(=O)c2cc(-c3cc(C)no3)ccc2OC)cc1
Cc1ccc(CNC(=O)CN(C)S(=O)(=O)c2ccc3c(c2)c(=O)n(C)c(=O)n3C)cc1
Cc1ccc(C)c(N(C)C(=O)c2cc3c(s2)-c2ccccc2OC3)c1
CN1C(=O)CC(C(=O)Nc2ccc(C(=O)O)cc2)SC1=Nc1ccc(Cl)cc1 (centres undefined)
